The whole screen tested about 150,000 compounds, of which about 540 (0.36%) showed an effect of 50% or more. The list shows a part of the results.
tested on: Plasmodium falciparum; assay: Primary screen in NF54 nanoGlo assay, in single point, at 2uM, 72h; a lower Z score goes with more inhibition; format: functional, Erythrocyte; conditions: timepoint 72 hour

Question: Which “% Inhibition” value does the source give for `CC(=O)Nc1ccc(S(=O)(=O)NC(=O)C2=Cc3ccccc3OC2)cc1` here?
Answer: -2%

Question: What about the Z score of the same compound?
Answer: 0.34

Question: Which “% Inhibition” value does the source give for `CC(C)CCOC1CCN(C(=O)NCC2CCCN(C)C2)C1` (stereo not given) here?
Answer: -13%

Question: And the Z score?
Answer: 1.9

Question: How did the “% Inhibition” value turn out when `NC(=O)COc1c(Br)cccc1Br` was run?
Answer: -6%

Question: What about the Z score of the same compound?
Answer: 1.2

Question: What does the source list for `Cc1noc(C)c1-c1nc(C2CCCC2)nn1CCO`?
Answer: % Inhibition: -9%; Z score: 1.48

Question: For `C#CCCC1(CCC(=O)N2CC3CC2(C(F)F)C3)N=N1`, which “% Inhibition” value is on record?
Answer: -5%

Question: What about the Z score of the same compound?
Answer: 0.58

Question: `CC(C)(C)OC(=O)N1CCC(F)(F)[C@@H](C#N)C1` was tested. Which “% Inhibition” value did it give?
Answer: -3%

Question: And the Z score?
Answer: 0.53

Question: How did the “% Inhibition” value turn out when `Cc1onc(-c2ccccc2Cl)c1C(=O)NCC1(c2ccc(F)cc2)CCOCC1` was run?
Answer: -13%

Question: And the Z score?
Answer: 2.28

Question: For `O=C(c1cnc2ccccc2n1)N1C2CCC1COC2`, which “% Inhibition” value is on record?
Answer: -14%

Question: What about the Z score of the same compound?
Answer: 1.64

Question: With `CCC1(O)CN(C(=O)c2cn(-c3nc(C)cc(C)n3)nc2C(C)C)C1` as the compound, how does the “% Inhibition” value read?
Answer: -5%

Question: What about the Z score of the same compound?
Answer: 0.97

Question: `CCOc1cc(Cl)ccc1C(=O)N1CC[C@H](N2CCOCC2)C1` was tested. Which “% Inhibition” value did it give?
Answer: -5%

Question: And the Z score?
Answer: 0.6

Question: What does the source list for `c1cnc(N2CCN(Cc3ccco3)CC2)nc1`?
Answer: % Inhibition: 5%; Z score: -0.93

Question: With `CC1CN(C(=O)CCn2nnc3ccccc3c2=O)C(C)CO1` (stereo not given) as the compound, how does the “% Inhibition” value read?
Answer: -8%

Question: And the Z score?
Answer: 1.59

Question: What does the source list for `Nc1c2c(-c3ccccc3Cl)nc(N3CCOCC3)nc2nn1-c1ccc(F)cc1`?
Answer: % Inhibition: -6%; Z score: 0.54

Question: How did the “% Inhibition” value turn out when `NC(=O)CN1CCC(NC(=O)c2cnn(Cc3ccccc3)c2)CC1` was run?
Answer: -14%

Question: And the Z score?
Answer: 2.76

Question: `COCCN1C[C@@H](Cc2nc(C)nc3sccc23)CC1=O` was tested. Which “% Inhibition” value did it give?
Answer: -6%

Question: And the Z score?
Answer: 0.58

Question: How did the “% Inhibition” value turn out when `CCc1nc(-c2ccc(-c3noc(-c4ccsc4)n3)cc2)cs1` was run?
Answer: -17%

Question: And the Z score?
Answer: 1.7

Question: What does the source list for `O=C(c1ccccc1)N1c2nc(-c3ccc(F)cc3)nn2C2(CCCCC2)[C@@H]2CCCC[C@@H]21`?
Answer: % Inhibition: -17%; Z score: 2.75

Question: What does the source list for `O=C(c1cn(C2CCN(S(=O)(=O)c3ccc(OC(F)(F)F)cc3)CC2)nn1)N1CCCC1`?
Answer: % Inhibition: -1%; Z score: 0.1

Question: What does the source list for `CC(C)C[C@H](NC(=O)c1sccc1C#N)C(=O)Nc1cc[nH]n1`?
Answer: % Inhibition: 2%; Z score: -0.38

Question: For `COc1cccnc1NC(=O)NC1(C(F)(F)F)CCC1`, which “% Inhibition” value is on record?
Answer: -14%

Question: What about the Z score of the same compound?
Answer: 1.73

Question: How did the “% Inhibition” value turn out when `Cn1cc(-c2ccc3c(c2)OCC[C@@H]2CC[C@H](O)[C@@H](CNC(=O)[C@@H]4CN(C5CCOCC5)CCN4C3=O)O2)cn1` was run?
Answer: -8%

Question: And the Z score?
Answer: 0.98

Question: How did the “% Inhibition” value turn out when `Cc1cccnc1CNC(=NCCN1CCOCC1)NCCC(C)C` was run?
Answer: -15%

Question: What about the Z score of the same compound?
Answer: 2.9

Question: How did the “% Inhibition” value turn out when `COc1ccc(CC(=O)NCc2nnc3n2CCC3)cc1` was run?
Answer: 30%

Question: And the Z score?
Answer: -0.83

Question: Which “% Inhibition” value does the source give for `O=C1CC[C@@H]2CO[C@@H](c3ccccc3)N3C(=O)CC[C@H]3CO[C@H](c3ccccc3)N12` here?
Answer: -3%

Question: And the Z score?
Answer: 0.26

Question: For `CCOC(=O)N1CCN(CC(=O)c2cc(C)n(-c3ccc4c(c3)OCCO4)c2C)CC1`, which “% Inhibition” value is on record?
Answer: -14%

Question: And the Z score?
Answer: 1.99

Question: Which results are given for `COCC1(C)CCN(c2nnc(Cc3cccnc3)n2C)CC1`?
Answer: % Inhibition: -8%; Z score: 1.26

Question: What does the source list for `Fc1ccc([C@@H]2C=C(c3ccc(Cl)cc3)Nc3nnnn32)cc1`?
Answer: % Inhibition: 2%; Z score: -0.21

Question: For `c1ccc(C2(CN[C@H](c3cccnc3)c3cc4ccccc4o3)CC2)cc1`, which “% Inhibition” value is on record?
Answer: -8%

Question: And the Z score?
Answer: 0.71

Question: How did the “% Inhibition” value turn out when `CCN(CC)CCN(Cc1cccs1)c1nn2cc(C)nc2s1` was run?
Answer: -8%

Question: What about the Z score of the same compound?
Answer: 0.68

Question: For `CC1CCC(CC(=O)N2CC3(CC3)C2)CC1` (stereo not given), which “% Inhibition” value is on record?
Answer: -5%

Question: What about the Z score of the same compound?
Answer: 0.63

Question: How did the “% Inhibition” value turn out when `COc1ccc(-c2nnc(C)o2)cc1NC(=O)c1cc(C#N)cn1C` was run?
Answer: -14%

Question: And the Z score?
Answer: 2.96

Question: Which results are given for `Cn1nc(CNC(=O)c2cccs2)c2c1CCOC2`?
Answer: % Inhibition: -4%; Z score: 0.82

Question: `CC(=O)N1CCC(Nc2cccnc2OC(C)C)CC1` was tested. Which “% Inhibition” value did it give?
Answer: 5%

Question: What about the Z score of the same compound?
Answer: -0.68

Question: Which “% Inhibition” value does the source give for `Cc1ccc2c(c1)cc(C(=O)N(C)CCc1ncon1)n2C` here?
Answer: -6%

Question: What about the Z score of the same compound?
Answer: 0.96

Question: Which “% Inhibition” value does the source give for `Cc1cccc(OCC(O)CNC(C)c2cncc(F)c2)c1` (stereo not given) here?
Answer: 4%

Question: And the Z score?
Answer: -0.49

Question: With `O=C(C(=O)N1CCCC1)c1ccc(Br)cc1` as the compound, how does the “% Inhibition” value read?
Answer: -15%

Question: What about the Z score of the same compound?
Answer: 2.14

Question: For `C[C@H](Oc1cccc(F)c1C(N)=O)c1nc(C2CC2)no1`, which “% Inhibition” value is on record?
Answer: -6%

Question: What about the Z score of the same compound?
Answer: 0.93

Question: `FCCn1cc(-c2noc([C@H]3C[C@@H]3c3ccc(F)cc3F)n2)cn1` was tested. Which “% Inhibition” value did it give?
Answer: 9%

Question: And the Z score?
Answer: -1.66

Question: How did the “% Inhibition” value turn out when `O=C(NCc1ccccc1)c1cc(NC[C@H]2CCS(=O)(=O)C2)ccn1` was run?
Answer: -5%

Question: And the Z score?
Answer: 0.94

Question: `COc1ccc(N2CCN(C(=O)c3sc4nc(C)nc(N5CCCCC5)c4c3C)CC2)cc1` was tested. Which “% Inhibition” value did it give?
Answer: -3%

Question: What about the Z score of the same compound?
Answer: 0.45

Question: For `CCCC[C@H](CC)CNS(=O)(=O)c1ccc(C)cc1`, which “% Inhibition” value is on record?
Answer: -2%

Question: What about the Z score of the same compound?
Answer: 0.22

Question: `CC1(C)C[C@H](NCc2cn3ccsc3n2)C(C)(C)O1` was tested. Which “% Inhibition” value did it give?
Answer: -5%

Question: What about the Z score of the same compound?
Answer: 0.54

Question: Which results are given for `Cc1c(NCc2cn(C(C)C)nn2)cccc1S(=O)(=O)NC1CC1`?
Answer: % Inhibition: -6%; Z score: 1.13

Question: How did the “% Inhibition” value turn out when `Cc1cc(O)ccc1NC(=O)NCC(F)(F)F` was run?
Answer: -13%

Question: And the Z score?
Answer: 1.31

Question: `C[C@H](NC(=O)Nc1cccc(Cl)c1)c1ccc2c(c1)CC(=O)N2` was tested. Which “% Inhibition” value did it give?
Answer: -3%

Question: What about the Z score of the same compound?
Answer: 0.44

Question: What does the source list for `Cc1ccc(C)c(OCC(=O)OCC(=O)NC(N)=O)c1`?
Answer: % Inhibition: 27%; Z score: -3.11

Question: `CN=C(NC)NCc1cc(C)c(F)c(C)c1` was tested. Which “% Inhibition” value did it give?
Answer: -1%

Question: What about the Z score of the same compound?
Answer: 0.08

Question: For `CCCN(C)S(=O)(=O)CCN1CCCC1`, which “% Inhibition” value is on record?
Answer: -14%

Question: What about the Z score of the same compound?
Answer: 1.46

Question: With `O=C(CN1CCC[C@H](O)C1)NCc1cc(-c2ccccc2Cl)no1` as the compound, how does the “% Inhibition” value read?
Answer: 0%

Question: And the Z score?
Answer: -0.05

Question: Which results are given for `O=C(c1ccc2c(c1)CCC2)N1C[C@@H]2CC[C@H]1CN(Cc1cscn1)C2`?
Answer: % Inhibition: -22%; Z score: 2.34

Question: With `CCn1nccc1CN(CCO)C(=O)c1ncoc1C1CC1` as the compound, how does the “% Inhibition” value read?
Answer: -8%

Question: And the Z score?
Answer: 1.35

Question: What does the source list for `CN1CCCN(C[C@H](O)c2ccc(Cl)c(F)c2)CC1=O`?
Answer: % Inhibition: -7%; Z score: 1.09

Question: What does the source list for `CCc1ccc(C2CC(C(=O)NCc3ccc4c(c3)OCO4)CN(C(=O)c3ccc(F)cc3)C2)cc1` (stereo not given)?
Answer: % Inhibition: 3%; Z score: -0.42

Question: With `O=S(=O)(c1cccc(-c2ccccc2)c1)N1CC2(CCNCC2)[C@H]2COC[C@H]21` as the compound, how does the “% Inhibition” value read?
Answer: -13%

Question: What about the Z score of the same compound?
Answer: 2.17

Question: With `O=S(=O)(c1ccccc1)[C@H]1CCN(S(=O)(=O)C2CCCCC2)C1` as the compound, how does the “% Inhibition” value read?
Answer: -15%

Question: What about the Z score of the same compound?
Answer: 2.58
